# The other results are listed elsewhere or left out. Repeats are few or missing, and single values can be far off.
# Tests used:
# Assay in all cases: cell count relative to DMSO control; melanoma cells; higher = more viable cells
# Settings in all cases: library dose: low library concentration; 72 h
# MZ2-MEL = system: MZ2-MEL
# MeWo = system: MeWo
# RPMI7951 = system: RPMI7951
# RVH-421 = system: RVH-421
# SkMel28 = system: SkMel28
# SkMel2 = system: SkMel2
# SkMel30 = system: SkMel30
# SkMel5 = system: SkMel5
# UACC257 = system: UACC257
# UACC62 = system: UACC62
# 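Note: cell number obtained by counting DAPI-stained nuclei in high-throughput microscope images with image analysis software, screen run in 1,536-well plates.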
Compound,cell count (MZ2-MEL),cell count (MeWo),cell count (RPMI7951),cell count (RVH-421),cell count (SkMel28),cell count (SkMel2),cell count (SkMel30),cell count (SkMel5),cell count (UACC257),cell count (UACC62)
"COc1cc(Nc2ncc(F)c(Nc3ccc4c(n3)NC(=O)C(C)(C)O4)n2)cc(OC)c1OC [Tamatinib] + O=C(Nc1cccc(Cl)c1)Nc1ncc(CCNc2ncnc3ccsc23)s1 [SNS314] (first compound 0.4 µM, partner dose 0.0008 µM)",93.8%,82.4%,85.2%,101%,71.1%,93.2%,80.3%,98%,54.2%,72.9%
"O=c1[nH]nc(Sc2ncc([N+](=O)[O-])s2)n1-c1ccc2c(c1)OCCO2 + Oc1cc(-c2nc(-c3ccccc3)[nH]c2-c2ccncc2)ccc1Cl [L779450] (first compound 0.2 µM, partner dose 0.2 µM)",79.7%,95.6%,113%,80.4%,93.4%,93.4%,118%,109%,84.4%,68.4%
"O=C(Nc1cccc(Cl)c1)Nc1ncc(CCNc2ncnc3ccsc23)s1 + COc1cc2c(Oc3ccc4[nH]c(C)cc4c3F)ncnc2cc1OCCCN1CCCC1 [cediranib] (first compound 0.0008 µM, partner dose 0.4 µM)",96.2%,107%,129%,84.8%,98.8%,98.4%,114%,87%,74.8%,108%
"COc1cc(Nc2ncc(F)c(Nc3ccc4c(n3)NC(=O)C(C)(C)O4)n2)cc(OC)c1OC [Tamatinib] + NCC(=O)Nc1ccc(-n2nc(C(F)(F)F)cc2-c2ccc3c(ccc4ccccc43)c2)cc1 [OSU03012] (first compound 0.4 µM, partner dose 1 µM)",90.6%,61.6%,95.3%,87%,76%,77.8%,0.197%,72.3%,66.1%,87.6%
"O=c1[nH]nc(Sc2ncc([N+](=O)[O-])s2)n1-c1ccc2c(c1)OCCO2 + CC1(C)NC(=O)N(c2ccc([N+](=O)[O-])c(C(F)(F)F)c2)C1=O [nilutamide] (first compound 0.2 µM, partner dose 1 µM)",108%,99.4%,108%,89.4%,120%,106%,110%,98.9%,120%,94%
"O=c1[nH]nc(Sc2ncc([N+](=O)[O-])s2)n1-c1ccc2c(c1)OCCO2 + CO[C@@H]1[C@H](N(C)C(=O)c2ccccc2)C[C@H]2O[C@]1(C)n1c3ccccc3c3c4c(c5c6ccccc6n2c5c31)C(=O)NC4 [Midostaurin] (first compound 0.2 µM, partner dose 0.08 µM)",106%,99.5%,95.5%,104%,102%,108%,116%,102%,117%,86.1%
"O=c1[nH]nc(Sc2ncc([N+](=O)[O-])s2)n1-c1ccc2c(c1)OCCO2 + Oc1nc(-c2ccc(C(F)(F)F)cc2)nc2c1CSCC2 [XAV939] (first compound 0.2 µM, partner dose 2 µM)",95.4%,100%,100%,104%,136%,105%,111%,79.2%,86.2%,115%
"CC1(C)NC(=O)N(c2ccc([N+](=O)[O-])c(C(F)(F)F)c2)C1=O [nilutamide] + Cc1ccc(NC(=O)c2cccc(N(C)C)c2)cc1NC(=O)c1ccc(O)cc1 [ZM336372] (first compound 1 µM, partner dose 2 µM)",77.8%,101%,83.7%,125%,94.4%,117%,57%,88.9%,103%,102%
"CC1(C)NC(=O)N(c2ccc([N+](=O)[O-])c(C(F)(F)F)c2)C1=O [nilutamide] + Cc1cc(N2CCOCC2)cc2[nH]c(-c3c(NC[C@@H](O)c4cccc(Cl)c4)cc[nH]c3=O)nc12 [BMS536924] (first compound 1 µM, partner dose 0.2 µM)",104%,87.6%,106%,106%,87.2%,97.8%,104%,93%,90.2%,87.5%
"O=c1[nH]nc(Sc2ncc([N+](=O)[O-])s2)n1-c1ccc2c(c1)OCCO2 + O=C(CCCCCCC(=O)Nc1ccccc1)NO [vorinostat] (first compound 0.2 µM, partner dose 0.08 µM)",111%,100%,105%,86.9%,104%,113%,104%,99.7%,92.5%,83.1%
"COc1cc(Nc2ncc(F)c(Nc3ccc4c(n3)NC(=O)C(C)(C)O4)n2)cc(OC)c1OC [Tamatinib] + CN(C)S(=O)(=O)c1ccc2c(c1)/C(=C/c1cc3c([nH]1)CCCC3)C(=O)N2 [SU6656] (first compound 0.4 µM, partner dose 0.4 µM)",86.1%,77.3%,84.5%,70.4%,82.5%,90.5%,97.1%,73%,60.5%,56.6%

# — the supplement of paper PMC4604168 (melanoma cell lines)
